{
  "source": "PubChem BioAssay AID1476",
  "about": "(National Center for Advancing Translational Sciences (NCATS), 2009)",
  "note": "The whole screen tested about 200,000 compounds, of which about 4,500 (2.2%) were called active. The shares of active, inactive and inconclusive entries below differ from those in the screen. Calls come from the whole dose curve; as a rule, active = well fitted inhibition curve with a large enough effect; inconclusive = small, poorly fitted or top-dose-only effect, or effect the other way; inactive = flat fitted curve, though single readings scatter. Where the call is inconclusive, the potency comes from a doubtful curve fit.",
  "data": [
    {"target": "Cruzipain (Trypanosoma cruzi) (UniProt P25779)", "sequence (P25779 whole entry, looked up)": "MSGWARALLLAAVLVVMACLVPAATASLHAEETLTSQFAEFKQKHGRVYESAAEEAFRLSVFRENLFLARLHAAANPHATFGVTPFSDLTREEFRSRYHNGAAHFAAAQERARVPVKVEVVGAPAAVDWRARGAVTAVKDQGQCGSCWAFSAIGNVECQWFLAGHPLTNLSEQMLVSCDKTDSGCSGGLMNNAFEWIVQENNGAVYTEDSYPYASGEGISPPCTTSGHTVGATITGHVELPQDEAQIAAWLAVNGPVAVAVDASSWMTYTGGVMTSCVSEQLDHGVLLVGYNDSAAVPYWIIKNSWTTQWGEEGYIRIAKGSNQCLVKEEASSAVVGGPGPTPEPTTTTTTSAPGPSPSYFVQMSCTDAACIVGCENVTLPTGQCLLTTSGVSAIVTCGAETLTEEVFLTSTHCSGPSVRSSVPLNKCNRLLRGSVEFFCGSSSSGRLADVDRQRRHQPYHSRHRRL", "assay": "qHTS Assay for Promiscuous and Specific Inhibitors of Cruzain (without detergent); note: nearly all actives have a fitted effect of over 40% in size; note: potency is the fitted concentration of half-maximal effect; tags give direction and shape of the fitted curve;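 for max response, negative = inhibition: plate controls were enzyme without inhibitor for no effect and buffer without enzyme for full effect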", "details": "purified cruzain, Z-FR-AMC fluorescence, no detergent", "outline": "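Detergent-free condition (0.00005% Triton X-100) in acetate buffer pH 5.5 with DTT. 1.5 nM enzyme and compound were pre-mixed 15 min, then 2 uM Z-FR-AMC substrate added; reaction progress from fluorescence change between first and third reads (60 s).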", "values": [
      {"compound": "Cc1nc2sc(C(c3cccc(F)c3)N3CCN(C(=O)c4ccco4)CC3)c(O)n2n1", "note": "(stereo unspecified)", "Potency": "inconclusive: 39.8 µM [activator, single point]"},
      {"compound": "CCCCN(CC)C(=O)CCCn1c(=O)c2cccn2c2ccccc21", "max response, negative = inhibition": "inactive: -6.38%"},
      {"compound": "Cc1ccc(NC(=O)CSc2nnc(-c3ccncc3)n2N)cc1C", "Potency": "inconclusive: 0.1 µM [inhibitor, single point]"},
      {"compound": "CC(=O)c1cccc(NC(=O)Nc2cc3sccc3n2C)c1", "Potency": "inconclusive: 31.6 µM [inhibitor, single point]"},
      {"compound": "C[C@H]1CC[C@@H]2[C@@H](C)[C@H]3[C@H](C[C@H]4[C@@H]5CC=C6CC(O[C@@H]7O[C@H](CO)[C@H](O)[C@H](O[C@@H]8O[C@H](CO)[C@@H](O)[C@H](O)[C@H]8O)[C@H]7O[C@H]7O[C@@H](C)[C@H](O)[C@@H](O)[C@H]7O)CC[C@]6(C)[C@H]5CC[C@]34C)N2C1", "note": "(stereo partly specified)", "Potency": "inconclusive: 39.8 µM [activator, single point]"},
      {"compound": "COc1cc(OC)cc(C(=O)N2CCC(n3c(C)nc4cc(F)ccc43)CC2)c1", "Potency": "inconclusive: 25.1 µM [activator, single point]"},
      {"compound": "N#Cc1c(NC(=O)CSc2nc(-c3ccccc3)cc(C(F)(F)F)n2)sc2c1CCC2", "Potency": "inconclusive: 31.6 µM [inhibitor, single point]"},
      {"compound": "CCCCOCCCn1c(N)c(C(=O)OCCOC)c2nc3ccccc3nc21", "Potency": "inconclusive: 25.1 µM [activator, partial curve]"},
      {"compound": "Cc1ccc(S(=O)(=O)c2cc3ccccc3oc2=Nc2ccc3c(c2)OCO3)cc1", "Potency": "inconclusive: 39.8 µM [inhibitor, single point]"},
      {"compound": "Cc1[nH]c2ccccc2c1C(=O)COC(=O)C1CC(=O)N(Cc2ccccc2)C1", "note": "(stereo unspecified)", "Potency": "inconclusive: 31.6 µM [activator, single point]"},
      {"compound": "CC(C)c1ccc(-c2noc(C3CCCN(C(=O)c4ccc(F)cc4F)C3)n2)cc1", "note": "(stereo unspecified)", "Potency": "inconclusive: 25.1 µM [activator, single point]"},
      {"compound": "O=c1n(S(=O)(=O)c2cccc3cccnc23)c2ccccc2n1S(=O)(=O)c1cccc2cccnc12", "Potency": "inconclusive: 39.8 µM [inhibitor, single point]"},
      {"compound": "CCCCOC(=O)n1c(SCC(=O)N(C)C)nc2ccccc21", "Potency": "inconclusive: 31.6 µM [activator, single point]"},
      {"compound": "Cc1ccc(N=C2NC(=O)/C(=C\\c3ccco3)S2)cc1", "Potency": "inconclusive: 39.8 µM [inhibitor, single point]"},
      {"compound": "O=C(CN1c2ccccc2S(=O)(=O)c2ccccc21)Nc1cccc(C(F)(F)F)c1", "Potency": "inconclusive: 20 µM [inhibitor, partial curve, poor fit]"},
      {"compound": "CSc1ccc(CCNC(=O)c2c(C)oc3ncn(C)c(=O)c23)cc1", "max response, negative = inhibition": "inactive: 8.01%"},
      {"compound": "CCN(CC)C(=O)Cn1cnc2sc(C(=O)Nc3cc(OC)c(OC)c(OC)c3)c(C)c2c1=O", "Potency": "inconclusive: 39.8 µM [activator, single point]"},
      {"compound": "Cc1ccc(CC(=O)N/N=C/c2ccc(OC(=O)c3ccc([N+](=O)[O-])cc3)cc2)cc1", "Potency": "inconclusive: 31.6 µM [inhibitor, single point]"},
      {"compound": "NC(=S)Nc1ccc(Oc2ccc(NC(N)=S)cc2)cc1", "Potency": "inconclusive: 31.6 µM [inhibitor, single point]"},
      {"compound": "CC1CCN(c2ncnc3nc[nH]c23)CC1", "max response, negative = inhibition": "inactive: -11.9%"},
      {"compound": "O=C(c1cc(-c2cccs2)on1)N1CCN(C(c2ccccc2)c2ccccc2)CC1", "Potency": "inconclusive: 39.8 µM [inhibitor, single point]"},
      {"compound": "C/C=C(/C)C(=O)O[C@H]1C(C)=C2C([C@@H]1OC(=O)CCCCCCC)[C@@](C)(OC(C)=O)C[C@@H](OC(=O)CCC)[C@@]1(O)[C@H]2OC(=O)[C@@]1(C)O", "note": "(stereo partly specified)", "Potency": "inconclusive: 15.8 µM [activator, partial curve]"},
      {"compound": "CCC(=O)Nc1cccc(-c2nc3cc(C)ccc3o2)c1", "Potency": "inconclusive: 39.8 µM [activator, single point]"},
      {"compound": "CN(CCC#N)C(=S)Nc1ccc(Oc2ccccc2)cc1", "Potency": "inconclusive: 31.6 µM [inhibitor, single point]"},
      {"compound": "CCOC(=O)c1ccc(NC(=O)CCc2nc3cccnc3n2Cc2cccs2)cc1", "Potency": "inconclusive: 6.31 µM [activator, full curve, poor fit]"},
      {"compound": "Cc1cccc(NC(=O)/C(C#N)=C/c2ccc(C)o2)c1", "max response, negative = inhibition": "inactive: 2.4%"},
      {"compound": "Cc1ccc(S(=O)(=O)c2cn(CC(=O)Nc3ccc(Cl)cc3)c3ccc(F)cc3c2=O)cc1C", "Potency": "inconclusive: 25.1 µM [inhibitor, single point]"},
      {"compound": "O=c1c2oc3ccccc3c2n(Cc2cccc(F)c2)c(=O)n1Cc1ccc2c(c1)OCO2", "max response, negative = inhibition": "inactive: -3.51%"},
      {"compound": "CCOc1ccc(C2c3c(oc4ccccc4c3=O)C(=O)N2c2ccc(C)cn2)cc1OC", "note": "(stereo unspecified)", "max response, negative = inhibition": "inconclusive: 182% [activator]"},
      {"compound": "CCCCNc1cc(C)nc(NCc2ccccc2)n1", "max response, negative = inhibition": "inactive: 4.5%"},
      {"compound": "CCc1ccc(NC(=O)Cn2c(=O)c3cc(Cl)ccc3n3nncc23)cc1", "max response, negative = inhibition": "inactive: 9.14%"},
      {"compound": "COc1ccccc1OC(C)c1nnc(SCC(=O)Nc2c(C)n(C)n(-c3ccccc3)c2=O)n1-c1ccccc1", "note": "(stereo unspecified)", "Potency": "inconclusive: 39.8 µM [activator, single point]"},
      {"compound": "Cc1cc(=O)oc2c(CN(C)Cc3ccccc3)c(O)ccc12", "Potency": "inconclusive: 31.6 µM [inhibitor, single point]"},
      {"compound": "CC(C)Cn1c(-c2ccco2)csc1=Nc1cccnc1", "Potency": "active: 12.6 µM"},
      {"compound": "Clc1ccc(-c2nnc3sc(-c4ccco4)nn23)c(Cl)c1", "Potency": "inconclusive: 31.6 µM [inhibitor, single point]"},
      {"compound": "COc1ccc(/C=N/N2CCOCC2)cc1COc1ccc(Cl)cc1", "Potency": "inconclusive: 39.8 µM [activator, single point]"},
      {"compound": "O=C(Nc1ccc2c(c1)OCO2)c1cnn2c1NC(c1ccco1)CC2C(F)(F)F", "note": "(stereo unspecified)", "Potency": "inconclusive: 39.8 µM [inhibitor, single point]"},
      {"compound": "CC(C)(C)C1CCc2c(sc(NC(=O)CSc3nnc(-c4ccccc4)o3)c2C#N)C1", "note": "(stereo unspecified)", "Potency": "inconclusive: 7.94 µM [inhibitor, single point]"},
      {"compound": "CN(C)c1oc(-c2ccccc2Cl)nc1P(=O)(c1ccccc1)c1ccccc1", "Potency": "inconclusive: 3.16 µM [inhibitor, partial curve]"},
      {"compound": "CCc1sc(NC(=O)c2cc3ccccc3oc2=O)nc1-c1cccs1", "Potency": "inconclusive: 39.8 µM [inhibitor, single point]"},
      {"compound": "O=c1c(Cl)c(N/N=C/c2ccc(Br)cc2)cnn1-c1ccccc1", "Potency": "inconclusive: 20 µM [activator, partial curve]"},
      {"compound": "Cc1cc(C)n2nc(C(=O)N/N=C/c3c4ccccc4cc4ccccc34)nc2n1", "Potency": "inconclusive: 39.8 µM [activator, single point]"},
      {"compound": "N#C/C(=C\\c1ccc([N+](=O)[O-])o1)c1nc2ccccc2[nH]1", "Potency": "inconclusive: 39.8 µM [inhibitor, single point]"},
      {"compound": "Cc1cc(C)nc(/N=C(/NC(=O)Nc2ccc(Cl)c(Cl)c2)Nc2ccccc2)n1", "Potency": "inconclusive: 31.6 µM [inhibitor, single point]"},
      {"compound": "C=CCSc1nnc(NC(=O)c2cccc(S(=O)(=O)N(C)c3ccccc3)c2)s1", "Potency": "inconclusive: 20 µM [inhibitor, single point]"},
      {"compound": "O=C(NCc1ccc2c(c1)CCN2C(=O)c1ccncc1)c1ccccc1F", "max response, negative = inhibition": "inactive: -3.97%"},
      {"compound": "CCOC(=O)N1CCN(C(=O)c2ccc3c(c2)N(Cc2ccc(C)cc2)CCS3)CC1", "Potency": "inconclusive: 31.6 µM [activator, single point]"},
      {"compound": "COc1ccc2c(c1)CCC1C2CC[C@@]2(C)C(O)CCC12", "note": "(stereo partly specified)", "max response, negative = inhibition": "inactive: -5.63%"},
      {"compound": "Clc1ccc(/C=N/NC2=Nc3cccc4cccc2c34)cc1", "Potency": "inconclusive: 10 µM [inhibitor, partial curve]"},
      {"compound": "COC1C(O)C(OC2CC[C@]3(C=O)C4C(OC(C)=O)C[C@@]5(C)C(C6=CC(=O)OC6)CC[C@]5(O)C4CC[C@]3(O)C2)OC(C)C1OC(C)=O", "note": "(stereo partly specified)", "Potency": "inconclusive: 5.01 µM [activator, full curve, poor fit]"},
      {"compound": "O=C(/C=C/c1ccc(Cl)cc1)Nc1ccc(N2CCCCC2)cc1", "Potency": "inconclusive: 31.6 µM [inhibitor, single point]"},
      {"compound": "Cc1c(NC(=O)Nc2ccccc2Cl)sc(=S)n1C", "Potency": "inconclusive: 25.1 µM [inhibitor, single point]"},
      {"compound": "CCOc1cc(C(=O)N2CCN(c3ccccc3)CC2)cc(OCC)c1OCC", "Potency": "inconclusive: 39.8 µM [activator, single point]"},
      {"compound": "COc1ccc(-c2nc(CSCC(=O)N3CCN(c4ccccc4)CC3)c(C)o2)cc1", "Potency": "inconclusive: 31.6 µM [activator, single point]"},
      {"compound": "CC(=O)c1cccc(NS(=O)(=O)c2cccc(S(=O)(=O)c3ccc(Br)cc3)c2)c1", "max response, negative = inhibition": "inactive: -27.9%"},
      {"compound": "O=c1[nH]c(SCc2c(F)cccc2Cl)nc2c1CCCC2", "max response, negative = inhibition": "inactive: 6.07%"},
      {"compound": "Cc1c(Cl)cccc1Nc1nn2c(=O)c3ccc(C(=O)N(C)Cc4ccccc4)cc3nc2s1", "max response, negative = inhibition": "inactive: 4.43%"},
      {"compound": "CCOc1cc(S(=O)(=O)NCCc2c(C)[nH]c3ccc(C)cc23)ccc1Br", "max response, negative = inhibition": "inactive: -6.62%"},
      {"compound": "O=C(Nc1ccc2nc(SCC(=O)N3CCOCC3)sc2c1)c1cccc(Br)c1", "Potency": "inconclusive: 39.8 µM [activator, single point]"},
      {"compound": "C=CCn1c(-c2csc(-c3ccccc3)n2)n[nH]c1=S", "Potency": "inconclusive: 39.8 µM [inhibitor, single point]"},
      {"compound": "O=[N+]([O-])c1cc(-c2cnc3ccccc3n2)ccc1Oc1ccc(Br)cc1", "Potency": "active: 25.1 µM"}
    ]}
  ]
}
